The source gives no read counts; variants with many changes may rest on few reads.
B1: LINE1-full (parent)
chain: UACGUAGGUGGUUUUCCCCUGAUAGUGCUAAGGGGGCCUGGAAGUUUGGACUGGGCAGAGCUCAACACAGCGUGGCAAAGUGGCUGUGGCUAGACUGCCUCUCUGGAUUCCUCGUCACUCAGCAGGGCAUCUCUGAGAGAAAUGCC

Variants of: B1
Assay: self-cleavage, relative activity (ratio to wild type); higher = more cleavage; in vitro, sequencing; the parent is a self-cleaving ribozyme

Variant	self-cleavage
A92U U108C U112C A117G A141G	1.84
A92U U108C U119C	1.72
A92U U115C A124G	0
A92U U119C U143C	1.14
G93A A94G U104C	0.14
G93A A117G A124G U130C	0
G93A U108A A138G	0.03
G93A U115C A141G	0.15
G93A U134C A140G	0.02
G93U U102C U108C	0.06
A94C U108C U134C A136U	0.32
A94C U130C A136G	0
A94C U132A U143C	0
A94G A107G A121C	0.84
A94G A107G C113A	0
A94G A136G A142G	0.49
A94G C113A A121U	0.23
A94G U100C A140G A141G	0
A94G U100C A142G	0
A94G U102C C128U	0
A94G U109C C118U	0.11
A94G U109C U132C A141G	0.61
A94G U112C U132C	0.16
A94G U119A A121G	0.61

Variant	self-cleavage
A94G U132C A142C	0.47
A94U A124G A142G	0.13
A94U G126A A136G	0.38
A94U U100C G105A	0.46
A94U U102C U119C A142G	0.14
A94U U104C A117G	0
C95A U108C A140U	0.06
C95U U102A G106U	0.12
U96A U100C A138G	0.06
U96A U100C C113A U119C	0
U96A U102C A140G	0.08
U96A U108A U134C	0.18
U96A U109A U112C	0.06
U96C A117U A138G	0.2
U96C A124G A140G	0
U96C A124G C133G	0.08
U96C A129C U134C	0
U96C A138G A141G	0
U96C C101U A141U	0.14
U96C C120U U132C	0.28
U96C C128U U132G	0.21
U96C U100C A117U	0.36
U96C U100C A140G	0.61
U96C U100C A142G	0.31

Variant	self-cleavage
U96C U100C U134A	0.6
U96C U102C A107G	0
U96C U104C U132C	0.18
U96C U108C C113A	0
U96C U109C C123U	0.12
U96C U115A A117U	0.09
U96C U119C U134C	0.32
U96C U132C A142G	0.14
U96C U132C C145U	0.13
G97U U108C U132G	0.09
C98A A117U A129G	0.28
C98A A121G A138G	0.45
C98A U115C A142G	0.83
C98A U134C A141G	0.1
C98G U132C U143A	0.1
C98U A136G U143C	0.58
C98U U102A U132A G135A A141G	1.1
C98U U102C C128U	0.37
C99U A124U G125U C128U	1.05
C99U U100C U102C	0.77
U100A A136U A142G	0.91
U100A A138G A141G	1.6
U100A U108C G127A	1.23
U100A U119C A121U	0.97

Variant	self-cleavage
U100C A107G A142G	1.58
U100C A117G G126A U130C C131A	2.53
U100C A117U U143A	2.35
U100C A138G A140U	2.04
U100C C113U U119G	1.51
U100C G122A U130C	2.14
U100C G135A A141G	2
U100C U102A A129G	1.21
U100C U104C A138G	2.8
U100C U108C U132A	1.43
U100C U112C U130A A138G	1.02
U100C U130C A136G	1.79
U100C U134A A142G	1.33
U100C U134C A140G	1.2
C101G A121U A142G	0.48
C101U C123A A129G U130A	1.59
C101U U104A A141G A142G	1.39
C101U U109A U130C	1.87
C101U U112C A136G	2
U102A A129G A141G C145U	0.67
U102A U108A U119C	1.62
U102A U109C U119C A140G	1.91
U102C A107G A138G	2.16
U102C A107U A124G	2.43

Variant	self-cleavage
U102C A117G G144A	1.08
U102C A136G A142G	0.97
U102C C116U U134C	1.12
U102C G105A C133A A136G A138G	1.36
U102C U109C A136U	1.12
U102C U109C A141G	2.21
U102C U109C G114A U130C A141G	2.59
U102C U115A A124C A129U	1.36
U102C U115A U132A	1.31
U102C U119C A129U	0.77
U102C U119C A140U	1.62
U102C U132C A141C	2.45
U102C U132C U143C	1.67
U102G U115A A124G U132C A141G	0
C103A A107G U108A U119C A138G	1.45
C103A U119C A140G	1.36
C103G U104G A141G	0.96
C103U U134C A141G	0.72
U104A A107G A138G	0.5
U104A A121U A124G	0.44
U104A A124G U143C	0.46
U104A U112C A138G	1.31
U104A U115G A141G	2.47
U104A U130G A136G	1.64

Variant	self-cleavage
U104C A121G U130A	2.41
U104C A121G U134C	1.31
U104C A121U A140G	2.43
U104C A124G U132C	1.13
U104C A129U U143A	2.07
U104C A138G A142G	1.98
U104C A140U A141G	1.37
U104C C110U U119A	1.53
U104C G106U U119C A124U A140G	2.69
U104C U108C A141G	1.15
U104G C116A A117C A141G	1.61
G105A U119G A121G	2.89
G105U C116U U119C	1.76
G106A A141G A142U	1.1
A107G A117G U134C	2.3
A107G A121C U134A	2.3
A107G A121G G127A	1.26
A107G A129G A141G	0.3
A107G A129U A141G U143C	0.84
A107G C131U A138G	1.84
A107G C131U U143C	1.59
A107G U108A A141G	2.33
A107G U119C U132A	1.08
A107U A117G U130C	1.31

Variant	self-cleavage
A107U A121G A141G	1.76
U108A U115C A142G	2.02
U108C A117U U134A U143C	2.51
U108C A138G A142G	1.84
U108C C111A A138G	1.27
U108C G122U A129G	1.04
U108C U115A G126U	1.98
U108C U119A A138U	2.21
U108C U119C A142G	0.51
U108C U134C A138G	1.67
U109A A142G C146U	1.53
U109A G114A A138U A140G	1.25
U109C A124G A129G	0.4
U109C A129U U143C	2.51
U109C U130C A141G	1.31
C110A C131U A136U	1.56
C110G U119C A141G	1.47
C110U U112A U119C C145U	1.49
C110U U115C U134A	0.93
C111A A136G A138U	1.42
C111U U112C U130A A136G	1.18
U112A A124G C131U A136U	0.87
U112A A129G A141G	1.31
